For part of its entries the source gives two or more results. Only these are listed. An entry can have further records. Results that share an entry are repeated measurements in other runs, samples, wells, individuals or studies. Brackets with × say how often a value occurs here.

What is called viability, T/C is the ratio of treated to control. Broadly, the IC50 is the midpoint of a concentration-inhibition curve.

In this test the test system is 598228-144-R-J1-PDC complex spheroid viability. As to the kind of experiment: Anticancer human tumor 598228-144-R-J1-PDC patient-derived serous endometrial adenocarcinoma cell line growth inhibition [GQUAD]. The following applies: for viability, T/C: stronger effect = lower value; for IC50: compound alone. The source says: DNA G-quadruplex Stabilizer Agents in Combinations in Complex Spheroids
A high-throughput screen of multi-cell type tumor spheroids was designed to identify active combinations of DNA G-quadruplex stabilizer agents and targeted small molecules. Complex spheroids include a stromal component modeled by human endothelial cells (HUVEC) and fibroblasts modeled by human mesenchymal stem cells (MSCs). The concentration ranges selected for each drug and investigational agent were based upon clinically achievable concentrations if the clinical Cmax of the agent was known.
Compounds. The drugs and investigational agents: pidnarulex (CX-5461; NSC782164), APTO-253 (NSC789042), BRACO-19 (NSC847499), peposertib (NSC802822), ceralasertib (NSC780249), elimusertib (NSC800525), camonsertib (NSC841442), AZD-1390 (NSC803789), olaparib (NSC753686), talazoparib (NSC767125), ART-558 (NSC835418), sotorasib (NSC818433), MRTX-1133 (NSC836407), SN-38 (NSC673596), topotecan (NSC609699), etoposide (NSC141540), doxorubicin (NSC123127), gemcitabine (NSC613327), 5-fluorouracil (NSC19893), paclitaxel (NSC125973), vemurafenib (NSC761431), panobinostat (NSC761190), R-306465 (JNJ-16241199; NSC773264), adavosertib (NSC754352), TP-3654 (NSC805149), carboplatin (NSC241240), KSQ-4279 (NSC840948), and staurosporine (NSC755774) were obtained from the National Cancer Institute (NCI) Developmental Therapeutics Program Chemical Repository (34). The FDA-approved anticancer drug set is available from the NCI Developmental Therapeutics Program. […] The stock solutions were prepared in dimethyl sulfoxide (DMSO, Sigma-Aldrich, St. Louis, MO, cat. D2650) at 800-fold the tested concentration and stored at -70 degrees C prior to their use. All drugs and investigational agents were tested over a range starting from a high concentration at or near the clinical Cmax and decreasing in half-log increments. If the clinical Cmax for an agent had not been determined, the highest concentration tested was 10 microM.
2.3 Cell Culture. All cells were maintained in an incubator at 37 degrees C and 5% CO2 with 95% humidity. The PDC lines were cultured according to standard operating procedures established by the NCI PDMR. All PDCs were thawed and cultured in Matrigel-coated flasks prepared with a working solution of 1X Ham's F-12 nutrient mix, without supplementation (Invitrogen, cat. 11765054), 100 U/mL penicillin-streptomycin (Invitrogen, cat. 15140122), and 2.5% Matrigel (Corning Inc., cat. 354248) for the first three passages. The 857933-349-R-J2-PDC line was cultured in 6C/Colon 1B media, which includes advanced DMEM/F-12 (Thermo Fisher Scientific, cat. 12634028), 10 mM HEPES (Thermo Fisher Scientific, cat. 15630080), 1X GlutaMAX supplement (Thermo Fisher Scientific, cat. 35050061), 0.1 mg/mL primocin (InvivoGen, cat. ant-pm-2), 10% defined fetal bovine serum, heat inactivated (HyClone Laboratories Inc., cat. SH30070.03HI), 50% L-WRN conditioned media (ATCC, cat. CRL-3276), 1.25 mM N-Acetyl-L-cysteine (Sigma-Aldrich, cat. A9165), 10 mM nicotinamide (Sigma-Aldrich, cat. N0636), 1X B-27 supplement (Thermo Fisher Scientific, cat. 17504044), 1X N-2 supplement (Thermo Fisher Scientific, cat. 17502048), 10 microM Y-27632 dihydrochloride (Tocris Bioscience, cat. 1254), and 50 ng/mL human EGF recombinant protein (Thermo Fisher Scientific, cat. PHG0311). The 485176-168-R4-J1-PDC line was cultured in Panc media, which includes all 6C/Colon 1B media components plus 100 ng/mL human FGF-10 (Thermo Fisher Scientific, cat. 100-26), 500 nM SB-431542 (Selleckchem, cat. S1067), and gastrin (Tocris, cat. 3006).
[…]
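Also: spheroids exposed to the agents for one week before reading.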
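For viability, T/C in this document: percent of vehicle DMSO control viability so 100% = untreated growth.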

Take `Cc1cnc(CNC(=O)c2c(=O)c3ccc(N4CCCN(C)CC4)nc3n3c2sc2ccccc23)cn1`: the viability, T/C (compound alone 0.0316 µM) was 98.6, 89.8, 94.7, 84.8, 78.4, 77.5, 83.3, 71.5, 98.3, 83, 81.1, 93.1%; the viability, T/C (compound alone 0.316 µM) is 71.7, 83.9, 84.7, 75.5, 67.5 (2×), 68.8 (2×), 68.3, 56.7, 62.9, 70.5%; the viability, T/C (compound alone 10 µM) is 64, 54.4, 51.8, 42.9, 45, 18.4, 12.9, 43.1, 49.9, 29.4, 26.6, 33.8%. Besides, the IC50 (run of 03/18/2024) is reported as 5.6 µM, 5 µM, 3.97 µM, 2.37 µM, 5.06 µM, > 10 µM, 3.84 µM, 4.17 µM, 4.15 µM.

With `CN(C)c1ccc(Nc2c3ccc(NC(=O)CCN4CCCC4)cc3nc3cc(NC(=O)CCN4CCCC4)ccc23)cc1`, the viability, T/C (compound alone 0.316 µM) is given as 97.2, 114, 96.8, 111, 104, 105, 97.9, 109, 93.3, 118, 108, 119%.

In the case of `Cc1[nH]c2ccc(F)cc2c1-c1nc2c3cccnc3c3ncccc3c2[nH]1`, the viability, T/C is, setting by setting: (compound alone 0.1 µM) 103, 92.8, 98.8, 89.6, 122, 76.5, 89.7, 99.4, 92.1, 105, 108, 114%; (compound alone 0.316 µM) 101, 94.6, 78, 69.1, 81.3, 88.2, 95.2, 87.2, 89.1, 99, 98.9, 104%; (compound alone 1 µM) 60.8, 71.5, 58.2, 57.8, 62.1, 56.8, 58.8, 64.1, 61.2, 70.2, 88.6, 62.6%.

In the case of `C=CCn1c(=O)c2cnc(Nc3ccc(N4CCN(C)CC4)cc3)nc2n1-c1cccc(C(C)(C)O)n1`, the IC50 is > 10 µM, 2.45 µM, 784 nM.

The values are drawn from PubChem BioAssay AID2060506 (Molecular Pharmacology Branch, DTP, NCI, 2025).
